Assay results taken from article PMC12504520.
These are yes or no findings as the source states them, for the method shown. Binding seen in cells or lysates may run through a third protein. Some entries that bind do so weakly or less than the wild type. For some assays here: Sequences can lack the tags named with a protein.

Protein sequences, listed by entry. Tags and fused reporters are not part of them. Lines headed by an entry give the natural chain unless they say otherwise; changes in a name come on top.
UniProt Q86U44: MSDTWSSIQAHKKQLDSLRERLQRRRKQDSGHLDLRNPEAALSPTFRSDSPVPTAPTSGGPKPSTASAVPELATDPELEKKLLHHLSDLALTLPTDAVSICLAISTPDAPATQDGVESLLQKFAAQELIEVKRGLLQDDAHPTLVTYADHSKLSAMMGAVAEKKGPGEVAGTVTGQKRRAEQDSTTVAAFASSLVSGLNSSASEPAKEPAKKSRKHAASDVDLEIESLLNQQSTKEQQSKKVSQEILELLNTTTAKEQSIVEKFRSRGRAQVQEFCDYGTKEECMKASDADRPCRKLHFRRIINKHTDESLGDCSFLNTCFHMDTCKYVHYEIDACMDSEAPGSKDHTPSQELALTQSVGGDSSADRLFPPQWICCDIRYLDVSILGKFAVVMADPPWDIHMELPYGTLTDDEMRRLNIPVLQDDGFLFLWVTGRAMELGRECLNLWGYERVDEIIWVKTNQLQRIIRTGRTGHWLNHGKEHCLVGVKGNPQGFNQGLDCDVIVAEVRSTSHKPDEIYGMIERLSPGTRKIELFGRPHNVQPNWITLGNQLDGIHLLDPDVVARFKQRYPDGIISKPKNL
UniProt Q8C3P7: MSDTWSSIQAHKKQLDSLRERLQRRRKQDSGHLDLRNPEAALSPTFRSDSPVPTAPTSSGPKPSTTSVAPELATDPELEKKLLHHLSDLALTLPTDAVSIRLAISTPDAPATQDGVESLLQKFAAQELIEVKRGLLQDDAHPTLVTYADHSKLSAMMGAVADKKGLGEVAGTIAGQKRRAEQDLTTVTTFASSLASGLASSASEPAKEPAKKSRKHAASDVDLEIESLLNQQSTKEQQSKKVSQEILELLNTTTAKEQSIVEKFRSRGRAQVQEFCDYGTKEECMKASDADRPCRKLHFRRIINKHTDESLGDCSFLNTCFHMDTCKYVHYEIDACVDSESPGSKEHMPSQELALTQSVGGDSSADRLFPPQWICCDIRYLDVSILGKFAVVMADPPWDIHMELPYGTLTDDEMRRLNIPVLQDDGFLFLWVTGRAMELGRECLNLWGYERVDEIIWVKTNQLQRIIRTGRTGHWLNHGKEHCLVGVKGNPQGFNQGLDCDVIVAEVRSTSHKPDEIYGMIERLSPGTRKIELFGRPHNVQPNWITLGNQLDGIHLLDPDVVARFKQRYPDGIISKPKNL

T1: HA-ADAP (adhesion and degranulation-protein adapter protein), full length (UniProt O15117)
T1 sequence: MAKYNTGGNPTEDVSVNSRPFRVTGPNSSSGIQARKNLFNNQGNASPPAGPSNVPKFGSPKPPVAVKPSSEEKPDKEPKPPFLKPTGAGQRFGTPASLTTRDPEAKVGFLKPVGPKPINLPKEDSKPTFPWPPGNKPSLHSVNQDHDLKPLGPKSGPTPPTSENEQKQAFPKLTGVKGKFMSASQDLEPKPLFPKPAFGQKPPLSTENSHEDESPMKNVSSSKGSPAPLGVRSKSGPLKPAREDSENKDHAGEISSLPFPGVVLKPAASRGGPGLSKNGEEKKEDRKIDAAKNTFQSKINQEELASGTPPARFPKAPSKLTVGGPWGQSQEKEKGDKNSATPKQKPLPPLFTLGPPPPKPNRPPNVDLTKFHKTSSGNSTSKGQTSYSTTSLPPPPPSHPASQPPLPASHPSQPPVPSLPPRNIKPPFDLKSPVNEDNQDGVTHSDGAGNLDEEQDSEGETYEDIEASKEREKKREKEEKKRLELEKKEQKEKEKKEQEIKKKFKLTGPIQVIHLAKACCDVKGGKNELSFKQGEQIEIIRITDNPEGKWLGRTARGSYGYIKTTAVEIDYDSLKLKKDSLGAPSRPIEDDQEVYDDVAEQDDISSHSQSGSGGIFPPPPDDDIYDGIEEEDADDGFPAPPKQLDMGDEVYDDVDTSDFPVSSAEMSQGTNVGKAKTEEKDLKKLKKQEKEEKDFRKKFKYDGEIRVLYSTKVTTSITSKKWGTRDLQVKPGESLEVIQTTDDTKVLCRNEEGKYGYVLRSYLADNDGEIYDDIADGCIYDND

T2: endogenous ADAP of iBMMs (mouse (endogenous in iBMMs)) (UniProt O35601)
T2 sequence: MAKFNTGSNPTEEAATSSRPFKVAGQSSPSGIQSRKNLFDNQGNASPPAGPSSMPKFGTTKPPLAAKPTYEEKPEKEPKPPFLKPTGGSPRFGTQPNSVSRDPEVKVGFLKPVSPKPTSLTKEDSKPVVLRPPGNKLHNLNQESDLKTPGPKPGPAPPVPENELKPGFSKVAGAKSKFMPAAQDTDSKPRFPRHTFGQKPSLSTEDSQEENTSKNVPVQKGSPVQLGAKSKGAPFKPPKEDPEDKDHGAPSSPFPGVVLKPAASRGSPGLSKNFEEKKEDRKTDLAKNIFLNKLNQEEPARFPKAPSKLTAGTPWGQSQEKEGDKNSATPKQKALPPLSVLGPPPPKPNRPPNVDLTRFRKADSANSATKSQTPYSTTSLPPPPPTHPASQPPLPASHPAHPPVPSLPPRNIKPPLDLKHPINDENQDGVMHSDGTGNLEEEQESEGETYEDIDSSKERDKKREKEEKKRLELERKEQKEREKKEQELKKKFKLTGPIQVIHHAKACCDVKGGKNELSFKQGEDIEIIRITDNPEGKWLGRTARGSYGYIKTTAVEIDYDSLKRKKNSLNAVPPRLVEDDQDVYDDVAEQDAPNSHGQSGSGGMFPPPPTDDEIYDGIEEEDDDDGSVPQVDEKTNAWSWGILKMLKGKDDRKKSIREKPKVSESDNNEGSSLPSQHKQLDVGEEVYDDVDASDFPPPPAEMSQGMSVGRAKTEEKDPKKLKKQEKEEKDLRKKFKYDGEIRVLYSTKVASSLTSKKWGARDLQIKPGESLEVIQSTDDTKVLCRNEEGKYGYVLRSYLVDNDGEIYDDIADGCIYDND


Experiments:
[1] = target: T1, HA-ADAP (adhesion and degranulation-protein adapter protein), full length; test: co-IP; HEK 293T cells co-transfected (36-40 h); lysates (1% Triton X-100, 20 mM Tris-HCl pH 8.3, 150 mM NaCl) immunoprecipitated with anti-HA antibody and Protein A/G agarose at 4 °C, immunoblot with anti-FLAG, anti-MYC, anti-HA
[2] = target: T2, endogenous ADAP of iBMMs (mouse (endogenous in iBMMs)); test: co-IP; whole-cell lysates of WT iBMMs, untreated or LPS (1 μg/ml, 12 h); immunoprecipitation with anti-ADAP or control IgG, immunoblot with METTL3 antibody; endogenous proteins
[3] = target: FLAG-METTL3 (methyltransferase-like 3), full length (UniProt Q86U44); test: co-IP; HEK 293T cells co-transfected with FLAG-METTL3 and HA-ADAP for 36 h; lysates immunoprecipitated with anti-FLAG antibody, immunoblot

| binding [1] | Molecule | also measured |
| --- | --- | --- |
| binds | truncated FLAG-METTL3, N-terminal region (residues 1-389) (from UniProt Q86U44 1-389) (domain or fragment) |  |
| binds | FLAG-METTL3 (methyltransferase-like 3), full length (from UniProt Q86U44 1-580) (enzyme) |  |
|  | endogenous METTL3 of iBMMs (from UniProt Q8C3P7 1-580) (enzyme) | binding [2]: binds |
| no binding | FLAG-METTL14 (protein, UniProt Q9HCE5 1-456) MDSRLQEIRERQKLRRQLLAQQLGAESADSIGAVLNSKDEQREIAETRETCRASYDTSAPNAKRKYLDEGETDEDKMEEYKDELEMQQDEENLPYEEEIYKDSSTFLKGTQSLNPHNDYCQHFVDTGHRPQNFIRDVGLADRFEEYPKLRELIRLKDELIAKSNTPPMYLQADIEAFDIRELTPKFDVILLEPPLEEYYRETGITANEKCWTWDDIMKLEIDEIAAPRSFIFLWCGSGEGLDLGRVCLRKWGYRRCEDICWIKTNKNNPGKTKTLDPKAVFQRTKEHCLMGIKGTVKRSTDGDFIHANVDIDLIITEEPEIGNIEKPVEIFHIIEHFCLGRRRLHLFGRDSTIRPGWLTVGPTLTNSNYNAETYASYFSAPNSYLTGCTEEIERLRPKSPPPKSKSDRGGGAPRGGGRGGTSAGRGRERNRSNFRGERGGFRGGRGGAHRGGFPPR |  |
|  | HA-ADAP (adhesion and degranulation-protein adapter protein), full length (protein, UniProt O15117 1-783) MAKYNTGGNPTEDVSVNSRPFRVTGPNSSSGIQARKNLFNNQGNASPPAGPSNVPKFGSPKPPVAVKPSSEEKPDKEPKPPFLKPTGAGQRFGTPASLTTRDPEAKVGFLKPVGPKPINLPKEDSKPTFPWPPGNKPSLHSVNQDHDLKPLGPKSGPTPPTSENEQKQAFPKLTGVKGKFMSASQDLEPKPLFPKPAFGQKPPLSTENSHEDESPMKNVSSSKGSPAPLGVRSKSGPLKPAREDSENKDHAGEISSLPFPGVVLKPAASRGGPGLSKNGEEKKEDRKIDAAKNTFQSKINQEELASGTPPARFPKAPSKLTVGGPWGQSQEKEKGDKNSATPKQKPLPPLFTLGPPPPKPNRPPNVDLTKFHKTSSGNSTSKGQTSYSTTSLPPPPPSHPASQPPLPASHPSQPPVPSLPPRNIKPPFDLKSPVNEDNQDGVTHSDGAGNLDEEQDSEGETYEDIEASKEREKKREKEEKKRLELEKKEQKEKEKKEQEIKKKFKLTGPIQVIHLAKACCDVKGGKNELSFKQGEQIEIIRITDNPEGKWLGRTARGSYGYIKTTAVEIDYDSLKLKKDSLGAPSRPIEDDQEVYDDVAEQDDISSHSQSGSGGIFPPPPDDDIYDGIEEEDADDGFPAPPKQLDMGDEVYDDVDTSDFPVSSAEMSQGTNVGKAKTEEKDLKKLKKQEKEEKDFRKKFKYDGEIRVLYSTKVTTSITSKKWGTRDLQVKPGESLEVIQTTDDTKVLCRNEEGKYGYVLRSYLADNDGEIYDDIADGCIYDND | binding [3]: binds |
